Measured values: paper PMC4336329 (PLoS ONE, 2015)
Out of some 310,000 compounds screened, about 14,000 (4.5%) showed an effect of 50% or more. Effects have a minus sign here. This is one part of the list.

Target: human ether-à-go-go-related gene (hERG) potassium channel (human, UniProt Q12809)
Assay: primary screen, population patch clamp on CHO cells stably expressing hERG
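Also: peak tail current of the secondary pulse compared with the same well before compound.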

Chain of human ether-à-go-go-related gene (hERG) potassium channel (Q12809 whole entry, looked up): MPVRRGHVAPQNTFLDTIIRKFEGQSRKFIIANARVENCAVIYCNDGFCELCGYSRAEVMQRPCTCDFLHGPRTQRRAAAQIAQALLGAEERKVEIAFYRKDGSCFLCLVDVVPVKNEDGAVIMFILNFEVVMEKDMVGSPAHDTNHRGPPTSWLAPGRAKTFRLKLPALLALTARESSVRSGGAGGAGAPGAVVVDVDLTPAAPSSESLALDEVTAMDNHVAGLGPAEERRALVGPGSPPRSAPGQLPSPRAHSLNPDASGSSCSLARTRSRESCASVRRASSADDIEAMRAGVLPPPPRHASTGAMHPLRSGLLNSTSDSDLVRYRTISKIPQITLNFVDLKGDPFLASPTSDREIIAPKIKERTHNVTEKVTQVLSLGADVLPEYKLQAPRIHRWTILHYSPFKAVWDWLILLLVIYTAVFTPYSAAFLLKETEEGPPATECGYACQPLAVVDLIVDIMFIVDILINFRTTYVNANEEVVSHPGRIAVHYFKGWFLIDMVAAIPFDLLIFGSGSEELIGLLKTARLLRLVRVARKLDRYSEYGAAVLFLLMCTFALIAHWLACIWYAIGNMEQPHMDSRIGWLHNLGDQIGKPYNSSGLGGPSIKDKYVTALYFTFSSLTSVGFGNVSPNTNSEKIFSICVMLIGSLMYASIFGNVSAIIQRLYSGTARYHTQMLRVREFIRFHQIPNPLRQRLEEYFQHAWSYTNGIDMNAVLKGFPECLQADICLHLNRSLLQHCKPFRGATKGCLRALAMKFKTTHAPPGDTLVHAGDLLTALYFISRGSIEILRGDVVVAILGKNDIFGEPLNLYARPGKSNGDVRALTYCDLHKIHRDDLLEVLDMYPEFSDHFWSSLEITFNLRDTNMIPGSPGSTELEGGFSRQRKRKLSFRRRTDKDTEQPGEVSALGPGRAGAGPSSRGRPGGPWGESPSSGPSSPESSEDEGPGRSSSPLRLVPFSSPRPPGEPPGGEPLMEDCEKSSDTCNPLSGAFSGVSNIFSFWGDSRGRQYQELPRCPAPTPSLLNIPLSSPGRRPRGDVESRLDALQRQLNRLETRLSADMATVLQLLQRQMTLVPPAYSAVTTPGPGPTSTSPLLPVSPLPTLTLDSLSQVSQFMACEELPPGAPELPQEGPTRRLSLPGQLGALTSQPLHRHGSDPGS

SMILES	hERG current change (%, negative = inhibition) at 10uM [%]
CC(NS(=O)(=O)c1ccc(Br)cc1)C(=O)NCc1ccc2c(c1)OCO2 (stereo not drawn)	-10.6
COc1ccc(CCNS(=O)(=O)c2ccc(N3CCCC3=O)cc2)cc1	5.2
Cc1ccc(CNC(C)(C)CO)cc1	1.98
CC(C)N(Cc1nccn1C)C(=O)CC1C(=O)NCCN1Cc1ccc(F)cc1 (stereo not drawn)	15.7
Cc1cccc(NC(=O)CCC2CCN(C(=O)c3ccc(C)s3)CC2)c1	-65.5
Cn1c(Cn2c(=O)sc3ccccc32)nnc1SCC(=O)N1CCCc2ccccc21	-20.5
O=C(COC(=O)C1CC2C=CC1C2)Nc1cccc(S(=O)(=O)N2CCOCC2)c1 (stereo not drawn)	-40.3
NC(=S)N/N=C/c1ncc(C(F)(F)F)cc1Cl	20.4
Cc1ccc(Nc2cc(-c3ccccc3)nc3ncnn23)cc1	2.62
Cl.Clc1ccc(CNC2CCCC2)c(Cl)c1	-16.5
O=C(/C=C/c1cccc(Cl)c1)NCCN1CCOCC1	-14.7
CCCC1=Nc2cc(C(=O)N3CCCC3)ccc2Sc2ccc(C)cc21	-19.9
CC(CNC(=O)c1ccc(C(C)(C)C)cc1)CN(C)C.Cl (stereo not drawn)	-8.15
Cc1c(NC(=O)c2n[nH]c(=O)c3ccccc23)c(=O)n(-c2ccccc2)n1C	32.7
OCC1(CCOc2ccccc2)CCN(Cc2nc3ccc(F)cc3[nH]2)CC1	-55
COc1ccc2nc(N/C(=N/S(=O)(=O)c3cccs3)c3ccccc3Cl)sc2c1	10.7
Cc1ccc(NC(=O)c2cccc(S(C)(=O)=O)c2)cc1	8.82
COC(=O)c1ccccc1NC(=O)/C=C/c1ccco1	5.68
Oc1ccc2ccccc2c1CN1CCN(C/C=C/c2ccccc2)CC1	14
CC(=O)Nc1nc2ccc(NC(=O)c3ccco3)cc2s1	6.98
Cc1cc(CNC(=O)c2cc(-c3ccccc3)nc3ccccc23)nn1C	-1.51
O=C(c1ncc[nH]1)c1ccccc1Cl	-24.7
CCOc1ccc(NC(=O)CC2C(=O)N(c3cccc(OC)c3)C(=O)N2CCOC)cc1 (stereo not drawn)	-5.19

SMILES	hERG current change (%, negative = inhibition) at 10uM [%]
CCN(CC(N)=O)S(=O)(=O)c1ccc(F)cc1	0.358
S=c1[nH]c(-c2ccccc2)cn1/N=C/c1ccncc1	4.65
O=C(NCc1ccccn1)Nc1ccc(Cl)cc1Cl	18.1
Fc1ccc(-c2[nH]ncc2CN(CC2CCC2)CC2CCCO2)c(F)c1 (stereo not drawn)	7.7
CSc1ccccc1NC(=O)CN(C)C(C)C(=O)Nc1ccc(C#N)cc1 (stereo not drawn)	-63.1
CN(CCCNC(=O)c1ccccc1F)CCCNC(=O)c1ccccc1F	-10.1
CCCCN(C(=O)c1ccc(Cl)cc1)C1CC2CCC(C1)N2C.Cl (stereo not drawn)	-47.4
CN(C)CCCN(C(=O)c1cc(Cl)sc1Cl)c1nc2cc3c(cc2s1)OCO3.Cl	-41.9
Cc1cc(Br)ccc1N1C(=O)CC(=O)NC1=O	5
Cc1cc(C)nc(SCc2ccccc2C#N)n1	-4.37
CCNS(=O)(=O)c1ccc(C)c(-n2cnnn2)c1C	-6.17
CCC(=O)Nc1ccc(C(=O)CSc2nnc(-c3ccc(NS(C)(=O)=O)cc3)n2C)cc1OC	10.3
CC(C)C(=O)N1CCN(c2ccccc2N)CC1	-0.151
Cc1ccccc1OC1=NS(=O)(=O)c2ccccc21	20.6
COc1cc(C(=O)Nc2ccc(S(=O)(=O)NC(C)(C)C)cc2)cc(OC)c1OC	1.39
CC(=O)N1N=C(c2ccccc2)OC1c1ccc([N+](=O)[O-])s1 (stereo not drawn)	-1.33
COc1ccc(S(=O)(=O)Nc2cc([N+](=O)[O-])ccc2OC)cc1	-20
Cc1nnc(NC(=O)CSc2nnc(CNC(=O)C34CC5CC(CC(C5)C3)C4)n2C2CCCCC2)s1	2.98
CCOc1cccc(CN2CCN(c3cccc(C(F)(F)F)c3)CC2)c1O	-46.6
CN(Cc1ccncc1)C1CC(=O)N(c2ccc(F)cc2)C1=O (stereo not drawn)	7.73
COc1ccccc1N1C(=O)NC(=O)/C(=C/c2ccc3c(c2)Cc2ccccc2-3)C1=O	-13
O=C(NC1CC1)c1ccc2c(c1)ncn2C1CCCC1	1.19
COc1ccc(C(N)CCc2ccc(C)o2)cc1.Cl (stereo not drawn)	-11

SMILES	hERG current change (%, negative = inhibition) at 10uM [%]
O=C(Cc1cccs1)Nc1cccc(-c2nc3ccccc3[nH]2)c1	-28.7
CS(=O)(=O)N(CC(=O)N1CCCC1)c1cc(Cl)c(Cl)cc1Cl	-4.34
Cc1ccc(-n2c(O)c(/C=N/N3CCOCC3)c(=O)[nH]c2=S)cc1	3.26
COc1ccc(Cc2nnc(NC(=O)C3CC(=O)N(CCc4ccc(F)cc4)C3)s2)cc1OC (stereo not drawn)	20.1
Cc1ccccc1Cn1ccc(NC(=O)c2cnn3c2NC(c2ccccc2)CC3C(F)(F)F)n1 (stereo not drawn)	-14.6
Cc1ccc(NC(=O)c2ccc(OC(=O)c3cc4ccccc4o3)cc2)cc1	8.66
O=S(=O)(c1ccc(-c2ccccc2)cc1)N1CCCCC1	14.1
Cc1cc(N2CCN(c3nc4ccccc4s3)CC2)n2ncnc2n1	-77.6
CCCc1cc(=O)[nH]c(SCC(=O)Nc2ccc(OC(F)F)cc2)n1	2.67
COc1ccc(S(=O)(=O)N2CCC(C(=O)Nc3ccc(F)cc3)CC2)c2cccnc12	-12.5
Cc1ccccc1CN(c1ccc(C(=O)N2CCc3ccccc3C2)cc1)S(C)(=O)=O	-20.6
CCOC(=O)[C@H]1[C@H]2COc3ccc(OC)cc3[C@@H]2N2C(=O)c3cc(OC)ccc3NC(=O)[C@@]12C	-21.1
CN(C(=O)COc1ccc([N+](=O)[O-])cc1)C1CCS(=O)(=O)C1 (stereo not drawn)	1.6
COCCCn1c(=S)[nH]c(C)c(C)c1=O	17.2
Cn1c(SCC(=O)Nc2ccc(N3CCOCC3)cc2)nnc1-c1ccccc1F	1.75
O=C(N/N=C/c1cccnc1)/C(=C\c1cccs1)NC(=O)c1ccccc1	-10.9
CC(C)c1ccc(C2NC(=O)c3ccccc3O2)cc1 (stereo not drawn)	20.7
O=C(NN=C1CCCC1)c1ccccc1[N+](=O)[O-]	18.6
N#Cc1ccsc1NC(=O)CCN1CCN(C(c2ccccc2)c2ccccc2)CC1	3.65
Cc1ccc2cc(C#N)c(NCCNC(=S)NCCCN(C)C)nc2c1C	-0.554
Cc1cccc(C)c1OCc1n[nH]c(=S)n1-c1ccccc1	18.2
COc1ccc(-n2c(SCC(=O)N3CCC(C(=O)O)CC3)nc3ccccc3c2=O)cc1OC	19.5
COc1cccc(Oc2ccc(N/C=C/C(=O)C(C)(C)C)cc2)c1	-1.27

SMILES	hERG current change (%, negative = inhibition) at 10uM [%]
O=C(CN1CCCCC1)NCCNC(=O)CN1CCCCC1	7.24
CCc1ccccc1NC(=S)N(Cc1ccco1)C(C)c1cccs1 (stereo not drawn)	7.73
O=C(NNc1ccc(F)cc1F)C1CCC1	-15
O=C(NNC1=NS(=O)(=O)c2ccccc21)c1ccccc1	-12.1
CCCc1nn(C)c(C(=O)Nc2cccc(CC)c2)c1Cl	-2.43
CCCCn1c(SCC(=O)Nc2oc(C)c3c(C)n[nH]c(=O)c23)nc2cc(S(N)(=O)=O)ccc21	-10.2
Cc1cc(Nc2ccc(F)c(Cl)c2)n2ncnc2n1	2.99
COc1ccccc1CNC(=O)c1cnc2sccn2c1=O	4.29
COCCSc1ccccc1C(=O)N1CCOCC1	4.53
Cn1c(=O)cc(SCC(=O)N2CCCC2)c2ccc(Cl)cc21	-12.7
COc1ccc(-c2csc3nc(C(C)(C)C)oc(=O)c23)cc1OC	7.43
CCOC(=O)C1=C(C)NC(c2cccs2)C(=O)N1 (stereo not drawn)	10.5
CCc1ccc(N(CC(=O)NCc2ccc(F)cc2)C(=O)c2csnn2)cc1	-33.1
CCn1c(N2CCN(S(=O)(=O)c3ccccc3)CC2)nc2ccccc21	-43.5
Cc1ccc(C(=O)/C=C/Nc2ccc(S(=O)(=O)Nc3cc(C)nc(C)n3)cc2)cc1	28.1
Cc1cnc(C(=O)OCC(=O)c2ccc(Cl)cc2)cn1	-8.46
Cl.N=c1n(Cc2ccccc2)c2ccccc2n1CC(O)COc1ccccc1 (stereo not drawn)	-74.6
COc1cc(CN2CCN(CC#Cc3ccccc3)CC2CCO)cc(OC)c1 (stereo not drawn)	-1.09
Cc1ccc(NC(=O)c2ccc(NC(=O)C3CCCCC3C(=O)O)cc2)cc1 (stereo not drawn)	14.4
CCC(=O)c1c[nH]c(C(=O)N2CCN(c3ccccc3)CC2)c1	-30.2
O=C1CCCN1CCCNC(=S)Nc1ccc(Nc2ccccc2)cc1	-10.9
